Experimental findings from paper PMC8742128 are described below.

The chains behind the UniProt entries cited, without tags or fusion partners. Where a name states a change or a piece, a line headed by the entry shows the natural chain unless it says otherwise. A line that says so, or that is headed by a name, gives the form on record, which may keep a tag or linker. Residues count along the entry.
UniProt Q8NCM8, residues 1-1090: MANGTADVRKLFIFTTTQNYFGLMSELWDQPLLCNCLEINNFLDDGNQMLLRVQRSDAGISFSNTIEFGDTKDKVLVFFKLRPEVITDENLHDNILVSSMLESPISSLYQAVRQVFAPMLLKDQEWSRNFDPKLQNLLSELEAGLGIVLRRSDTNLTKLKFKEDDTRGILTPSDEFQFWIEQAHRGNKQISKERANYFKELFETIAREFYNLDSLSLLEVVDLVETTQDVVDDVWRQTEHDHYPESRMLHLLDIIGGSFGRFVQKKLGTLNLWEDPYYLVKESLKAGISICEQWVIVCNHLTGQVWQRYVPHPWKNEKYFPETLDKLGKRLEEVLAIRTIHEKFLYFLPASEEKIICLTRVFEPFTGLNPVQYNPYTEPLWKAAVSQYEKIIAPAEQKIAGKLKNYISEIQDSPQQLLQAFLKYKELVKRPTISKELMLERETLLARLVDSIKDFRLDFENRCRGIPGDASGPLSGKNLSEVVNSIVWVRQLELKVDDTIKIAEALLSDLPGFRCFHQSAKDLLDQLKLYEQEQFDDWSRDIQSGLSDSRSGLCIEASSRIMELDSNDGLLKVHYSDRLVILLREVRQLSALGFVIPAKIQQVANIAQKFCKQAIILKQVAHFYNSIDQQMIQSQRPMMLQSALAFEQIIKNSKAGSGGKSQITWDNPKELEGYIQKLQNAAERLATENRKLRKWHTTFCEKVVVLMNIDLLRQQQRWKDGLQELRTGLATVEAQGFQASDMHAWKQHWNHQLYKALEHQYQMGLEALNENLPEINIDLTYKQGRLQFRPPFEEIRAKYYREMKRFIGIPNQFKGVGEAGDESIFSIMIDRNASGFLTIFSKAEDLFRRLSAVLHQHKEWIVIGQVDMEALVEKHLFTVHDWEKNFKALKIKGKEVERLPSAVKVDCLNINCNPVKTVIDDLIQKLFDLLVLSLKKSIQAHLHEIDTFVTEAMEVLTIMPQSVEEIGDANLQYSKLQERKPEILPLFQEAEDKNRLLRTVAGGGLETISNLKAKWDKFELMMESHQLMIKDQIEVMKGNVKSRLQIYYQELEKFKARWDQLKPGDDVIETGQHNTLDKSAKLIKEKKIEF
EGFP-DYNC2LI1(241–352) (Q8TCX1, residues 240-351): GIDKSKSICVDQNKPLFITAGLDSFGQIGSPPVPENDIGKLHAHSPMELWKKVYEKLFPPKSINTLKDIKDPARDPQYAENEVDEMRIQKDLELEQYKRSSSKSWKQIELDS
EGFP-DYNC2LI1(L117V) (Q8TCX1-2, form named): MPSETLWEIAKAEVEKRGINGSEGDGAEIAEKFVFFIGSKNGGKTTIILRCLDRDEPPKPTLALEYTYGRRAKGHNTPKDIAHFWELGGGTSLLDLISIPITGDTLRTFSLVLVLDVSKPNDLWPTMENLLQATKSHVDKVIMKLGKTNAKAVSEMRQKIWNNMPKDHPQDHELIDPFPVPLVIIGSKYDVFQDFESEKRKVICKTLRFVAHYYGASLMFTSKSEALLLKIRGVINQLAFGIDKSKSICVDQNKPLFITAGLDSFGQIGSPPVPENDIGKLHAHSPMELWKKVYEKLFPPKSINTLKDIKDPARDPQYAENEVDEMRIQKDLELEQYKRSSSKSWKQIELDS
EGFP-DYNC2LI1(P120S) (Q8TCX1-2, form named): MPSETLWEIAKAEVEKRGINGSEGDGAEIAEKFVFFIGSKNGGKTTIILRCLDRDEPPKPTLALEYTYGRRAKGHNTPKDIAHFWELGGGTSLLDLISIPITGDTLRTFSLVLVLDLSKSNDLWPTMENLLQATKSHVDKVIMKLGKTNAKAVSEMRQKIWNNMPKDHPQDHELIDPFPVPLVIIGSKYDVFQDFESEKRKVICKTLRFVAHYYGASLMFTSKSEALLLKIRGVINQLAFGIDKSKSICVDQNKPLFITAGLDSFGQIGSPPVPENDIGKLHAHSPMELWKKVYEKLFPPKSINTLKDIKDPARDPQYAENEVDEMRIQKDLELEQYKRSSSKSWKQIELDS
EGFP-DYNC2LI1(T221I) (Q8TCX1-2, form named): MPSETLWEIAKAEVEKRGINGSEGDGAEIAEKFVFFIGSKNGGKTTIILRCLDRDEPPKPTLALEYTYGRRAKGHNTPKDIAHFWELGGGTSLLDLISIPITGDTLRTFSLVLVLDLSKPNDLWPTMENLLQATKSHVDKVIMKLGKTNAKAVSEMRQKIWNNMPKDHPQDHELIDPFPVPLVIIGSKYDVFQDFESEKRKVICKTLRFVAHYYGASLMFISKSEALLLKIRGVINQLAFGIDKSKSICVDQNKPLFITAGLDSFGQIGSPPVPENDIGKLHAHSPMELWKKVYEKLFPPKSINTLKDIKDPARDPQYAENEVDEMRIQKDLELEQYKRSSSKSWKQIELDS
EGFP-DYNC2LI1(WT) (Q8TCX1-2, form named): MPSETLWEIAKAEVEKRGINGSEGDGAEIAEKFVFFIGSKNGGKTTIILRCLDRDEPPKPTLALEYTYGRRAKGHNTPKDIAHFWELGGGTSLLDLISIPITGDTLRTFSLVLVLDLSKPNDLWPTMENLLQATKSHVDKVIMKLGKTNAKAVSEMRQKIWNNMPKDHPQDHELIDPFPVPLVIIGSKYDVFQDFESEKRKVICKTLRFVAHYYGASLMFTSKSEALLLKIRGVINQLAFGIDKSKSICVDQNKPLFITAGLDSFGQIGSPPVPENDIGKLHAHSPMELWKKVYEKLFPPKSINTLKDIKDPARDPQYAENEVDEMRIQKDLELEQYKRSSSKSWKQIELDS
EGFP-DYNC2LI1(1–317) (Q8TCX1-2, form named): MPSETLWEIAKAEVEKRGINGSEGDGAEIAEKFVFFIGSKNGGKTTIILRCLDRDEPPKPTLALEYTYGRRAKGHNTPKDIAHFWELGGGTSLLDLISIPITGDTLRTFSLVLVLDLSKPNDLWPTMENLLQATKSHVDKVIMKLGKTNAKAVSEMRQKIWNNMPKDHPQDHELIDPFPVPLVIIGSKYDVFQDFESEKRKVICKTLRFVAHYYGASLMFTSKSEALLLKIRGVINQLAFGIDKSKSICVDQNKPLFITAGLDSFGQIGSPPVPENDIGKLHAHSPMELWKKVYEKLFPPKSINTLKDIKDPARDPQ
EGFP-DYNC2LI1(1–240) (Q8TCX1-2, form named): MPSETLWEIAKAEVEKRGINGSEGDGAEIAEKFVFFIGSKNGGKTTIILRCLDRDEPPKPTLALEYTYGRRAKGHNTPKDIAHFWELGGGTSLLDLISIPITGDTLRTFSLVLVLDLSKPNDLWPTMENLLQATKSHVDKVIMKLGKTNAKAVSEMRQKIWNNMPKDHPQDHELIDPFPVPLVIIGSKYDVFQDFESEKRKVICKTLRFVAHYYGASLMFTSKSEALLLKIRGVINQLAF
EGFP-DYNC2LI1(1–207) (Q8TCX1-2, form named): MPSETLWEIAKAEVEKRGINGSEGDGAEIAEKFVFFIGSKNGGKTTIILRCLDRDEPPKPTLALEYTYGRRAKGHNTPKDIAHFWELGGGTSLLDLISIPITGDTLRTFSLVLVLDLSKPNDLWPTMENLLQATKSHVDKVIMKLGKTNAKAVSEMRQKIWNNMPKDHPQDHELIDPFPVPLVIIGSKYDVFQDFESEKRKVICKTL
EGFP-DYNC2LI1(Δ302–332) (Q8TCX1-2, form named): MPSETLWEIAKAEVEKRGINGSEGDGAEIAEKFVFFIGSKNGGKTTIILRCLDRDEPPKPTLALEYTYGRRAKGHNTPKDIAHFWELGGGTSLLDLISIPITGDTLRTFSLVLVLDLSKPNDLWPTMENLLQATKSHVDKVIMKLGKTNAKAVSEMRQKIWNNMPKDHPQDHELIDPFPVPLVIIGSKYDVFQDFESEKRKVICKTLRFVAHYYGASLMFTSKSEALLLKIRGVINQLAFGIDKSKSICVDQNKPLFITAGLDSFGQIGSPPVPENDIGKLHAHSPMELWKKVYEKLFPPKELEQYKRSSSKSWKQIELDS
EGFP-DYNC2LI1(1–297) (Q8TCX1-2, form named): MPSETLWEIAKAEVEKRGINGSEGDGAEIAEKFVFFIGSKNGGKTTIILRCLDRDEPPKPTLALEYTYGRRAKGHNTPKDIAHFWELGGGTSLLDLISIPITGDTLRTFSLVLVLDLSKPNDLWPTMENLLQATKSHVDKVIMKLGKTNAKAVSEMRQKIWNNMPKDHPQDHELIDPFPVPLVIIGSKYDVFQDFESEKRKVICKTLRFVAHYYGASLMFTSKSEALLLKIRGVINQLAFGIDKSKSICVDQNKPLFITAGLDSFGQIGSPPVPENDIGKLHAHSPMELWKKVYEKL
UniProt Q96EX3, residues 106-536: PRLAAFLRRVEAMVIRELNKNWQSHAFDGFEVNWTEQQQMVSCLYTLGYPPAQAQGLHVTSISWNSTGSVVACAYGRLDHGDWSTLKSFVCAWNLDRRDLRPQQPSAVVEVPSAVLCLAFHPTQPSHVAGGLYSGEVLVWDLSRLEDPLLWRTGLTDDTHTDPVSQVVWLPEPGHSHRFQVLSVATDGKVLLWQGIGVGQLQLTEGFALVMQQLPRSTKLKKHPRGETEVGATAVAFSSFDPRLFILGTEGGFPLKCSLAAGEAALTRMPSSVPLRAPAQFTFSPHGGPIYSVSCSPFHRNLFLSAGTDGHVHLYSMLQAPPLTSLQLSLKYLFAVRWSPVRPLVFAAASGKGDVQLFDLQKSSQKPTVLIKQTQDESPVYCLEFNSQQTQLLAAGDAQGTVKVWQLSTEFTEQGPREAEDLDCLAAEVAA
UniProt Q8WVS4, residues 627-1066: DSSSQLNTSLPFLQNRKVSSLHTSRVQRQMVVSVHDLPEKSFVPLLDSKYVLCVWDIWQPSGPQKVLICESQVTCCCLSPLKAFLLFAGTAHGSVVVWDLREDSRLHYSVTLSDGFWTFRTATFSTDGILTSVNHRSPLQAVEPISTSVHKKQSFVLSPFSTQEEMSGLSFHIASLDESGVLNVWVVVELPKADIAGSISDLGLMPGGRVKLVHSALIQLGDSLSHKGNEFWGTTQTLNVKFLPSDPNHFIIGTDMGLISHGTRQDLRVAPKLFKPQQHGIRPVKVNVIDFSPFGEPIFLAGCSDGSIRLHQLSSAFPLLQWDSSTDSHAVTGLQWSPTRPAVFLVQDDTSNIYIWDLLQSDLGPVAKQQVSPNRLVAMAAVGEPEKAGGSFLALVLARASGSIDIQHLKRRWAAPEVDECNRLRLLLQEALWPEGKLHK

The target in one test is DYNC2H1(N)-mCherry (UniProt Q8NCM8). Description: co-IP; lysates of HEK293T cells coexpressing DYNC2H1(N)-mChe and an EGFP-fused DYNC2LI1 construct; precipitated with GST-tagged anti-mChe Nb (LaM-2) on glutathione-Sepharose 4B beads, 4 °C, 1 h; HMDEKN lysis buffer (10 mM HEPES pH 7.4, 5 mM MgSO4, 1 mM DTT, 0.5 mM EDTA, 25 mM KCl, 0.05% NP-40); immunoblot with anti-mChe and anti-GFP (Fig. 1c).

In the next test the target is DYNC2H1(N)-EGFP (UniProt Q8NCM8). Put plainly: co-IP; lysates of HEK293T cells coexpressing DYNC2H1(N)-EGFP, an EGFP-fused DYNC2LI1 construct and mChe-WDR60(627–1066) or mChe-WDR34(106–536); precipitated with GST–anti-GFP Nb on glutathione-Sepharose 4B beads (both EGFP proteins are captured), 4 °C, 1 h; HMDEKN lysis buffer; immunoblot with anti-mChe and anti-GFP (Fig. 1d, Fig. S1a).

The target in test [1] is EGFP-DYNC2LI1(241–352) (human) (UniProt Q8TCX1). Described as above.
Test [2] deals with EGFP-DYNC2LI1(WT) (human) (UniProt Q8TCX1). Described as above.
Test [3] has as its target EGFP-DYNC2LI1(T221I) (human) (UniProt Q8TCX1). The description is as above.
The target in test [4] is EGFP-DYNC2LI1(1–317) (human) (UniProt Q8TCX1). The test is described as above.
The target in test [5] is EGFP-DYNC2LI1(L117V) (human) (UniProt Q8TCX1). The test is described as above.
In test [6] the target is EGFP-DYNC2LI1(1–240) (human) (UniProt Q8TCX1). The test is described as above.
Test [7] addresses EGFP-DYNC2LI1(1–207) (human) (UniProt Q8TCX1). Described as above.
For test [8], the target named is EGFP-DYNC2LI1(Δ302–332) (human) (UniProt Q8TCX1). The test is described as above.
In test [9] the target is EGFP-DYNC2LI1(1–297) (human) (UniProt Q8TCX1). Described as above.
For test [10], the target named is EGFP-DYNC2LI1(P120S) (human) (UniProt Q8TCX1). The test is described as above.

Results are given in words; binding and its absence hold for the method and conditions named. Binding seen in cells or lysates may run through a third protein. Some entries that bind do so weakly or less than the wild type.

For “EGFP-DYNC2LI1(241–352) (from UniProt Q8TCX1-2 241-352) (domain or fragment)”, in the test with DYNC2H1(N)-mCherry, the binding result is given as “no binding”.
Still for that read-out and setting: the value for “EGFP-DYNC2LI1(L117V) (from UniProt Q8TCX1-2 1-352)” was “binds”; that for “EGFP-DYNC2LI1(P120S) (from UniProt Q8TCX1-2 1-352)” was “binds”.
As for “EGFP-DYNC2LI1(T221I) (from UniProt Q8TCX1-2 1-352)”, in the test with DYNC2H1(N)-mCherry, the binding result is recorded as “binds”.
With “EGFP-DYNC2LI1(WT) (from UniProt Q8TCX1-2 1-352)”, the binding result in the test with DYNC2H1(N)-mCherry was “binds”.
For “mChe-WDR34(106–536) (from UniProt Q96EX3 106-536) (domain or fragment)”, the binding entry with DYNC2H1(N)-EGFP was “binds”.
Take “mChe-WDR60(627–1066) (from UniProt Q8WVS4 627-1066) (domain or fragment)”: the binding result in test [1] is “no binding”; in [2], “binds”; in test [3] it was “binds”; in test [4], “no binding”; in test [5] it was “no binding”; in test [6], “no binding”. Also, the binding entry in test [7], in test [8], in [9] and in test [10] was “no binding” throughout.
